Sequences with one replicate were seen in a single cluster, so their values are uncertain.
system: ATP; assay: switch fluorescence ratio, 500 uM ATP over buffer (Cy3 cluster intensity, sum of 5 cycles each) (fold (ratio)); higher = stronger signal-on switching upon ATP binding; sequences stand for … in TCGTCGGCAGCGTCAGATGTGTATAAGAGACAGTTTTTTTTTTTTTTTTTTTTTTTTT…TC; settings: aptamer strand: ATP DNA aptamer (quencher-CACCTGGGGGAGTATTGCGGAGGAAGG + anchor), 100 nM annealed; ATP concentration: 500 uM; one replicate
Outline: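 Exposure to 500 uM ATP lasted 15 min at 22 °C before imaging, and a selection-buffer image was taken beforehand, for Cy3-labelled switching-strand clusters on a modified Illumina MiSeq flow-cell annealed to 100 nM quencher-labelled ATP aptamer. Five buffer/ATP cycles were run with NaOH stripping and re-annealing between them. The fluorescence ratio per cluster is summed target-cycle over summed buffer-cycle Cy3 intensity, averaged per switch-domain sequence. Clusters outside 100-1000 RFU were excluded.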

Sequence	switch fluorescence ratio
ACTGTCCCGA	1.07
ACTGTCTGCT	1
ACTGTTCAAC	1.02
ACTTAATGCT	1.04
ACTTACTAAT	1.12
ACTTAGCGCG	1.06
ACTTAGGCCC	1
ACTTAGGGCT	1.01
ACTTAGGTTC	1.02
ACTTAGTAA	1.07
ACTTATCCGT	1.05
ACTTCAAAAA	1.01
ACTTCGCCTG	1.1
ACTTCGCGTC	1.32
ACTTCGTTGT	1.02
ACTTCTGGAA	1.12
ACTTCTGGCG	1.05
ACTTCTGTCG	0.977
ACTTGCTGCG	1.05
ACTTGGTCGG	0.992
ACTTTACCCT	1.38
ACTTTATTGA	1.01
ACTTTGAACG	1.07
ACTTTGCACC	1.2
ACTTTGCGCT	1.05

Sequence	switch fluorescence ratio
ACTTTGCGGG	1.01
ACTTTGGGCC	1.01
ACTTTGTTTC	0.972
ACTTTTATG	0.973
ACTTTTCCAG	1.04
ACTTTTGAGA	0.979
ACTTTTTACT	1.06
AGAAAAGAGC	1.03
AGAAAATCAT	1
AGAAACGGAC	1.42
AGAAATAAGT	1.01
AGAAATTGAA	0.965
AGAAATTGGC	1.05
AGAACAGGA	1.06
AGAACATTCA	1.11
AGAACATTTT	1.03
AGAACCGTAG	1.07
AGAACGAGGC	1.08
AGAACGTGAG	1
AGAACTTAGG	1
AGAACTTCGG	0.99
AGAAGCCGGT	0.935
AGAAGTCATG	0.966
AGAAGTCCAT	0.966
AGAATAAGGG	0.978

Sequence	switch fluorescence ratio
AGAATATTTA	0.998
AGAATCTCAC	1.03
AGAATCTTTG	0.955
AGAATGCCAT	1.01
AGAATGCGGA	1.05
AGAATGCTGT	0.938
AGAATTCACA	1.01
AGAATTGATG	0.976
AGAATTGCCC	1.05
AGACAAGCAA	2.05
AGACACTAGT	1.03
AGACAGCGGA	1.02
AGACAGCTTA	1.04
AGACAGGAAA	0.984
AGACATTATT	0.982
AGACCAGATC	1
AGACCCCTCT	1.01
AGACCCGTTA	1.02
AGACCGATG	1.02
AGACCGCAGA	1.09
AGACCGTACG	1.11
AGACCTGCCG	1
AGACGACAGT	0.993
AGACGAGGGG	1.03
AGACGATTAA	0.936

Sequence	switch fluorescence ratio
AGACGCAAA	2.1
AGACGCCTTA	1
AGACGGTAAA	1.15
AGACGGTTCC	1.41
AGACGGTTGG	1.01
AGACGTCGCA	1.03
AGACTACATG	1.03
AGACTCACAT	1.11
AGACTCACGT	1.41
AGACTCCTGT	1.01
AGACTGTCCT	0.986
AGACTGTGAA	1.03
AGAGAAAAGT	0.998
AGAGAACTGT	0.93
AGAGAACTTA	1.02
AGAGAATAC	1.16
AGAGAATCTG	1.06
AGAGACTATA	0.989
AGAGACTGTA	0.975
AGAGATAGG	0.995
AGAGCAAAGA	1.04
AGAGCAGAGA	0.954
AGAGCATCGT	0.956
AGAGCGCCTG	1.01
AGAGCTAGGT	0.99
